Experimental data as given in patent US9873709B2 (priority 2013, dated 2018).

biological target: isolated recombinant JAK1 kinase domain (Homo sapiens (Human), UniProt P23458); conditions: read-out: JAK1 Ki; isolated recombinant JAK1 kinase domain, 25 μM ATP
Sequence (P23458 875-1153): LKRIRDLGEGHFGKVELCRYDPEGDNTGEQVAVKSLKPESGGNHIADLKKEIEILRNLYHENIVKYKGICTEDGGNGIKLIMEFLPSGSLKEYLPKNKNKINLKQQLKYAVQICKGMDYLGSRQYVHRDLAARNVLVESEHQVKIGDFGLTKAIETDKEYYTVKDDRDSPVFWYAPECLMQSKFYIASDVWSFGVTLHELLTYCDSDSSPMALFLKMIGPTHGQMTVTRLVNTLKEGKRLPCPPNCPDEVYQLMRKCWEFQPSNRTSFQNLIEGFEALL

Compound | Ki [nM]
O=C(NC1CC2(CCNCC2)C1)c1ccc(Nc2nc3c(C4=CCN(C(=O)CCC(F)(F)F)CC4)cccn3n2)cc1 [Example 2-322, N-(7-azaspiro[3.5]nonan-2-yl)-4-[[8-[1-(4,4,4-trifluorobutanoyl)-3,6-dihydro-2H-pyridin-4-yl]-[1,2,4]triazolo[1,5-a]pyridin-2-yl]amino]benzamide] | 0.86
N[C@]12C[C@H]1CN(C(=O)c1ccc(Nc3nc4c(C5=CCN(C(=O)CCC(F)(F)F)CC5)cccn4n3)cc1)C2 [Example 2-323] | 1.44
CN(C)C(=O)C1CN(C(=O)c2ccc(Nc3nc4c(C5=CCN(C(=O)CCC(F)(F)F)CC5)cccn4n3)cc2)CCN1C (stereo not drawn) [Example 2-325, N,N,1-trimethyl-4-[4-[[8-[1-(4,4,4-trifluorobutanoyl)-3,6-dihydro-2H-pyridin-4-yl]-[1,2,4]triazolo[1,5-a]pyridin-2-yl]amino]benzoyl] piperazine-2-carboxamide] | 1.59
CN1C[C@@H]2CCN(C(=O)c3ccc(Nc4nc5c(C6=CCN(C(=O)CCC(F)(F)F)CC6)cccn5n4)cc3)[C@@H]2C1 [Example 2-326, 1-[4-[2-[4-[(3aS,6aS)-5-methyl-2,3,3a,4,6,6a-hexahydropyrrolo[2,3-c]pyrrole-1-carbonyl]anilino]-[1,2,4]triazolo[1,5-a]pyridin-8-yl]-3,6-dihydro-2H-pyridin-1-yl]-4,4,4-trifluoro-butan-1-one] | 0.98
CNC(=O)C1CN(C(C)C)CCN1C(=O)c1ccc(Nc2nc3c(C4=CCN(C(=O)CCC(F)(F)F)CC4)cccn3n2)cc1 (stereo not drawn) [Example 2-327, 4-isopropyl-N-methyl-1-[4-[[8-[1-(4,4,4-trifluorobutanoyl)-3,6-dihydro-2H-pyridin-4-yl]-[1,2,4]triazolo[1,5-a]pyridin-2-yl]amino]benzoyl] piperazine-2-carboxamide] | 1.8
CN1CCC2(C1)CN(C(=O)c1ccc(Nc3nc4c(C5=CCN(C(=O)CCC(F)(F)F)CC5)cccn4n3)cc1)C2 [Example 2-328, 4,4,4-trifluoro-1-[4-[2-[4-(7-methyl-2,7-diazaspiro[3.4]octane-2-carbonyl)anilino]-[1,2,4]triazolo[1,5-a]pyridin-8-yl]-3,6-dihydro-2H-pyridin-1-yl]butan-1-one] | 0.5
O=C(CCC(F)(F)F)N1CC=C(c2cccn3nc(Nc4ccc(C(=O)N5CCN(C6CCCCC6)CC5)cc4)nc23)CC1 [Example 2-329, 1-[4-[2-[4-(4-cyclohexylpiperazine-1-carbonyl)anilino]-[1,2,4]triazolo[1,5-a]pyridin-8-yl]-3,6-dihydro-2H-pyridin-1-yl]-4,4,4-trifluoro-butan-1-one] | 0.91
CC(C)N1CCC(N(C)C(=O)c2ccc(Nc3nc4c(C5=CCN(C(=O)CCC(F)(F)F)CC5)cccn4n3)cc2)CC1 [Example 2-330, N-(1-isopropyl-4-piperidyl)-N-methyl-4-[[8-[1-(4,4,4-trifluorobutanoyl)-3,6-dihydro-2H-pyridin-4-yl]-[1,2,4]triazolo[1,5-a]pyridin-2-yl]amino]benzamide] | 1.62
COCCN1CCN(C(=O)c2ccc(Nc3nc4c(C5=CCN(C(=O)CCC(F)(F)F)CC5)cccn4n3)cc2)CC1 [Example 2-331, 4,4,4-trifluoro-1-[4-[2-[4-[4-(2-methoxyethyl)piperazine-1-carbonyl]anilino]-[1,2,4]triazolo[1,5-a]pyridin-8-yl]-3,6-dihydro-2H-pyridin-1-yl]butan-1-one] | 1.18
CN1C(C)(C)CC(NC(=O)c2ccc(Nc3nc4c(C5=CCN(C(=O)CCC(F)(F)F)CC5)cccn4n3)cc2)CC1(C)C [Example 2-332, N-(1,2,2,6,6-pentamethyl-4-piperidyl)-4-[[8-[1-(4,4,4-trifluorobutanoyl)-3,6-dihydro-2H-pyridin-4-yl]-[1,2,4]triazolo[1,5-a]pyridin-2-yl]amino]benzamide] | 0.51
CC(C)(CN1CCOCC1)NC(=O)c1ccc(Nc2nc3c(C4=CCN(C(=O)CCC(F)(F)F)CC4)cccn3n2)cc1 [Example 2-333, N-(1,1-dimethyl-2-morpholino-ethyl)-4-[[8-[1-(4,4,4-trifluorobutanoyl)-3,6-dihydro-2H-pyridin-4-yl]-[1,2,4]triazolo[1,5-a]pyridin-2-yl]amino]benzamide] | 1.01
CC(CN1CCCCC1)NC(=O)c1ccc(Nc2nc3c(C4=CCN(C(=O)CCC(F)(F)F)CC4)cccn3n2)cc1 (stereo not drawn) [Example 2-334, N-[1-methyl-2-(1-piperidyl)ethyl]-4-[[8-[1-(4,4,4-trifluorobutanoyl)-3,6-dihydro-2H-pyridin-4-yl]-[1,2,4]triazolo[1,5-a]pyridin-2-yl]amino]benzamide] | 1.05
CN1CCCC(CNC(=O)c2ccc(Nc3nc4c(C5=CCN(C(=O)CCC(F)(F)F)CC5)cccn4n3)cc2)C1 (stereo not drawn) [Example 2-337, N-[(1-methyl-3-piperidyl)methyl]-4-[[8-[1-(4,4,4-trifluorobutanoyl)-3,6-dihydro-2H-pyridin-4-yl]-[1,2,4]triazolo[1,5-a]pyridin-2-yl]amino]benzamide] | 0.57
O=C(CCC(F)(F)F)N1CC=C(c2cccn3nc(Nc4ccc(C(=O)N5CCC(c6ccncc6)C5)cc4)nc23)CC1 (stereo not drawn) [Example 2-338, 4,4,4-trifluoro-1-[4-[2-[4-[3-(4-pyridyl)pyrrolidine-1-carbonyl]anilino]-[1,2,4]triazolo[1,5-a]pyridin-8-yl]-3,6-dihydro-2H-pyridin-1-yl]butan-1-one] | 0.4

Results, then the molecule that gave them:

Ki [nM] | Compound
1.16 | O=C(CCC(F)(F)F)N1CC=C(c2cccn3nc(Nc4ccc(C(=O)N5CCCC(N6CCOCC6)C5)cc4)nc23)CC1 (stereo not drawn) [Example 2-339, 4,4,4-trifluoro-1-[4-[2-[4-(3-morpholinopiperidine-1-carbonyl)anilino]-[1,2,4]triazolo[1,5-a]pyridin-8-yl]-3,6-dihydro-2H-pyridin-1-yl]butan-1-one]
0.95 | O=C(CCC(F)(F)F)N1CC=C(c2cccn3nc(Nc4ccc(C(=O)N5CCN(CC6CCCO6)CC5)cc4)nc23)CC1 (stereo not drawn) [Example 2-340, 4,4,4-trifluoro-1-[4-[2-[4-[4-(tetrahydrofuran-2-ylmethyl)piperazine-1-carbonyl]anilino]-[1,2,4]triazolo[1,5-a]pyridin-8-yl]-3,6-dihydro-2H-pyridin-1-yl]butan-1-one]
0.84 | O=C(CCC(F)(F)F)N1CC=C(c2cccn3nc(Nc4ccc(C(=O)N5CCCC(c6ccccn6)C5)cc4)nc23)CC1 (stereo not drawn) [Example 2-341, 4,4,4-trifluoro-1-[4-[2-[4-[3-(2-pyridyl)piperidine-1-carbonyl]anilino]-[1,2,4]triazolo[1,5-a]pyridin-8-yl]-3,6-dihydro-2H-pyridin-1-yl]butan-1-one]
0.74 | CNC(=O)C1CN(C(=O)c2ccc(Nc3nc4c(C5=CCN(C(=O)CCC(F)(F)F)CC5)cccn4n3)cc2)CCN1Cc1ccccc1 (stereo not drawn) [Example 2-342, 1-benzyl-N-methyl-4-[4-[[8-[1-(4,4,4-trifluorobutanoyl)-3,6-dihydro-2H-pyridin-4-yl]-[1,2,4]triazolo[1,5-a]pyridin-2-yl]amino]benzoyl] piperazine-2-carboxamide]
0.61 | O=C(NCCc1ccncc1)c1ccc(Nc2nc3c(C4=CCN(C(=O)CCC(F)(F)F)CC4)cccn3n2)cc1 [Example 2-343, N-[2-(4-pyridyl)ethyl]-4-[[8-[1-(4,4,4-trifluorobutanoyl)-3,6-dihydro-2H-pyridin-4-yl]-[1,2,4]triazolo[1,5-a]pyridin-2-yl]amino]benzamide]
19.8 | CC(=O)N1CC=C(c2cccn3nc(Nc4ccc(C(=O)N(C)C5CCN(C)CC5)cc4)nc23)CC1 [Example 2-344, 4-[[8-(1-acetyl-3,6-dihydro-2H-pyridin-4-yl)-[1,2,4]triazolo[1,5-a]pyridin-2-yl]amino]-N-methyl-N-(1-methyI-4-piperidyl)benzamide]
4.52 | CN1CCC(N(C)C(=O)c2ccc(Nc3nc4c(C5=CCN(C(=O)OC6CCOC6)CC5)cccn4n3)cc2)CC1 (stereo not drawn) [Example 2-346, tetrahydrofuran-3-yl 4-[2-[4-[methyl-(1-methyl-4-piperidyl)carbamoyl]anilino]-[1,2,4]triazolo[1,5-a]pyridin-8-yl]-3,6-dihydro-2H-pyridine-1-carboxylate]
17.6 | CN1CCC(N(C)C(=O)c2ccc(Nc3nc4c(C5=CCN(C(=O)[C@H]6CC[C@H](C#N)CC6)CC5)cccn4n3)cc2)CC1 [Example 2-350, 4-[[8-[1-(4-cyanocyclohexanecarbonyl)-3,6-dihydro-2H-pyridin-4-yl]-[1,2,4]triazolo[1,5-a]pyridin-2-yl]amino]-N-methyl-N-(1-methyl-4-piperidyl)benzamide]
2.62 | CN1CCC(N(C)C(=O)c2ccc(Nc3nc4c(C5=CCN(C(=O)OCC6CC6)CC5)cccn4n3)cc2)CC1 [Example 2-353, cyclopropylmethyl 4-[2-[4-[methyl-(1-methyl-4-piperidyl)carbamoyl]anilino]-[1,2,4]triazolo[1,5-a]pyridin-8-yl]-3,6-dihydro-2H-pyridine-1-carboxylate]
3.85 | CCOC(=O)N1CC=C(c2cccn3nc(Nc4ccc(C(=O)N5CCN(C)CC5)cc4)nc23)CC1 [Example 2-354, ethyl 4-[2-[4-(4-methylpiperazine-1-carbonyl)anilino]-[1,2,4]triazolo[1,5-a]pyridin-8-yl]-3,6-dihydro-2H-pyridine-1-carboxylate]
3.02 | CCOC(=O)N1CC=C(c2cccn3nc(Nc4ccc(C(=O)NC(C)CN(C)C)cc4)nc23)CC1 (stereo not drawn) [Example 2-355, ethyl 4-[2-[4-[[2-(dimethylamino)-1-methyl-ethyl]carbamoyl]anilino]-[1,2,4]triazolo[1,5-a]pyridin-8-yl]-3,6-dihydro-2H-pyridine-1-carboxylate]
6.13 | CCOC(=O)N1CC=C(c2cccn3nc(Nc4ccc(C(=O)N5CCCNCC5)cc4)nc23)CC1 [Example 2-356, ethyl 4-[2-[4-(1,4-diazepane-1-carbonyl)anilino]-[1,2,4]triazolo[1,5-a]pyridin-8-yl]-3,6-dihydro-2H-pyridine-1-carboxylate]
3.93 | CCOC(=O)N1CC=C(c2cccn3nc(Nc4ccc(C(=O)N5CCC(NC)C5)cc4)nc23)CC1 (stereo not drawn) [Example 2-357, ethyl 4-[2-[4-[3-(methylamino)pyrrolidine-1-carbonyl]anilino]-[1,2,4]triazolo[1,5-a]pyridin-8-yl]-3,6-dihydro-2H-pyridine-1-carboxylate]
